Results on 130 sequences are retold here after a collection of fitness landscapes (doi:10.1038/s41467-024-54723-y).

Whole data set: some 18,000 sequences, median “TetR repression strength (sort-seq, GFP reporter)” near 0.23, cut for the highest 2% near 0.68. This is one part of the list.

This assay deals with TetR (class B, Tn10) (UniProt P04483). Kind of assay: TetR repression strength (sort-seq, GFP reporter) (relative to tetO2 = 1); higher = stronger repression. The following applies: E. coli. Summed up: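 Repression strength was calculated by subtracting the read-weighted mean bin from the top bin index plus one and dividing by the unaltered operator's value. The plasmid library was low-copy in E. coli SIG10-MAX, with eight randomized operator positions between a constitutive promoter and sfGFP and constitutive TetR. Cultures grew 5 h at 37 °C in LB containing 50 µg/mL chloramphenicol before 10^6 cells were sorted by FACS into 13 fluorescence bins, each sequenced on Illumina. Three independent transformations were averaged for members having ≥30 reads in all replicates and a CV ≤0.5.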
UniProt P04483, sequence (P04483 whole entry): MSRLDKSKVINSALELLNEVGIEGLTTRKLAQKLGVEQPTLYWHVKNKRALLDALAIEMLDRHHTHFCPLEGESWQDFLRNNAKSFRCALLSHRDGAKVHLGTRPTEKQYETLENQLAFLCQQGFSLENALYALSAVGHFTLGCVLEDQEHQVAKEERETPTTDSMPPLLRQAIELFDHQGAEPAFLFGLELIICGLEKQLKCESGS
Turning to TCCCACATAGTAAGTGAGA, the TetR repression strength is 0.207.
The value for TCCCTCCTAGTGCGCGAGA was 0.494; that for TCCCAGAAAGTCGAAGAGA was 0.311.
Sequence TCCCGATAAGTACCGGAGA yielded a TetR repression strength of 0.0834.
TCCCGTTCAGTGGTGGAGA yielded a TetR repression strength of 0.22.
TCCCTGGGAGTGTAAGAGA returned a TetR repression strength of 0.187.
With TCCCTGAGAGTGGGTGAGA the figure was 0.226; with TCCCGTTCAGTGACAGAGA, 0.504.
The value for TCCCCGAAAGTTGTTGAGA was 0.435.
With TCCCGTCCAGTGTGGGAGA the figure was 0.295; with TCCCTTTTAGTGTGGGAGA, 0.317; with TCCCGGTCAGTCGTGGAGA, 0.239.
For the sequence TCCCTGAGAGTCTGCGAGA, the TetR repression strength was 0.203.
TCCCGAGTAGTGATTGAGA: the TetR repression strength amounted to 0.527.
Consider TCCCTGGGAGTTAATGAGA, for which the TetR repression strength stood at 0.427.
TCCCTAAGAGTTATCGAGA came in with a TetR repression strength of 0.147.
The value for TCCCCGTTAGTGGAAGAGA was 0.115; that for TCCCATACAGTGCGTGAGA was 0.212.
With TCCCGATGAGTGCCCGAGA the figure was 0.147.
In the case of TCCCCCCCAGTCGTGGAGA, the TetR repression strength was determined as 0.277.
As for TCCCTTGGAGTGAGGGAGA, the TetR repression strength came out at 0.495.
With TCCCAGCCAGTACTTGAGA the figure was 0.149.
TCCCGCGCAGTGTTCGAGA showed a TetR repression strength of 0.18.
With TCCCGGCCAGTGGGGGAGA the figure was 0.268; with TCCCGTTTAGTGGATGAGA, 0.0216; with TCCCATCCAGTTTGTGAGA, 0.104.
On to TCCCTGCGAGTTCTAGAGA, for which the TetR repression strength is 0.253.
Take TCCCTAAAAGTGAGGGAGA: the TetR repression strength was 0.245.
With TCCCTAGTAGTTGTAGAGA the figure was 0.333; with TCCCAGGAAGTTGCAGAGA, 0.0428.
The value for TCCCGACGAGTTCACGAGA was 0.0691.
The sequence TCCCGTGTAGTGCAGGAGA gave a TetR repression strength of 0.237.
The value for TCCCGGACAGTCACGGAGA was 0.216.
The value for TCCCATGCAGTTTGGGAGA was 1.07.
With TCCCAGCAAGTTGGGGAGA the figure was 0.297; with TCCCTTCTAGTGTAAGAGA, 0.184; with TCCCCTCCAGTCTCTGAGA, 0.398.
The sequence TCCCCCAGAGTGGGGGAGA displayed a TetR repression strength of 0.284.
TCCCGGGTAGTCTAAGAGA showed a TetR repression strength of 0.508.
Consider TCCCACGTAGTGACGGAGA, for which the TetR repression strength is 0.0259.
TCCCAGGTAGTGGTTGAGA: the TetR repression strength is 0.212.
With TCCCTGGGAGTTAGAGAGA the figure was 0.832.
With TCCCGTAAAGTGGCAGAGA the figure was 0.155; with TCCCGTCGAGTGAAGGAGA, 0.311.
As to TCCCGGAGAGTCGAAGAGA, the TetR repression strength was 0.542.
With TCCCAAAAAGTAGTCGAGA the figure was 0.25.
The sequence TCCCGTCCAGTGGCGGAGA showed a TetR repression strength of 0.116.
Regarding TCCCGGTTAGTACTCGAGA, the TetR repression strength stood at 0.23.
The value for TCCCCATGAGTGGGAGAGA was 0.294; that for TCCCGTTAAGTATGCGAGA was 0.222; that for TCCCATACAGTGCGAGAGA was 0.37.
For TCCCCTGGAGTAGGCGAGA, the TetR repression strength was 0.0907.
With TCCCTACGAGTGTAGGAGA the figure was 0.14.
Consider TCCCCACAAGTGGTCGAGA, for which the TetR repression strength worked out at 0.112.
Consider TCCCGCAAAGTTACCGAGA, for which the TetR repression strength amounted to 0.432.
As for TCCCTACGAGTGGGAGAGA, the TetR repression strength turned out to be 0.0829.
In the case of TCCCGCATAGTTGGGGAGA, the TetR repression strength stood at 0.523.
With TCCCGCTCAGTGGTAGAGA the figure was 0.428; with TCCCATGTAGTGCGGGAGA, 0.0699; with TCCCTTTCAGTTAGTGAGA, 0.307.
With TCCCTCGTAGTGGATGAGA, the TetR repression strength is 0.206.
With TCCCGCGTAGTGATGGAGA the figure was 0.264.
The sequence TCCCTCTGAGTAGCTGAGA displayed a TetR repression strength of 0.338.
The value for TCCCTTTTAGTAATAGAGA was 0.204; that for TCCCGGTAAGTCGGTGAGA was 0.258; that for TCCCCGTAAGTGTGGGAGA was 0.0415.
TCCCGCGCAGTATGTGAGA showed a TetR repression strength of 0.484.
Sequence TCCCGGTTAGTCGCTGAGA displayed a TetR repression strength of 0.22.
As for TCCCGTCGAGTCGGGGAGA, the TetR repression strength turned out to be 0.281.
With TCCCGTAAAGTCGCGGAGA the figure was 0.0415; with TCCCAGATAGTTTTAGAGA, 0.151.
On to TCCCTGTAAGTAATTGAGA, for which the TetR repression strength turned out to be 0.277.
The value for TCCCAGCCAGTTAGCGAGA was 0.17.
For TCCCGCGCAGTTCGGGAGA, the TetR repression strength is 0.176.
The value for TCCCAATGAGTATCCGAGA was 0.249.
As to TCCCCATCAGTTTCTGAGA, the TetR repression strength was 0.348.
The value for TCCCATTAAGTGATCGAGA was 0.344; that for TCCCTTACAGTAACCGAGA was 0.261.
The sequence TCCCTCTAAGTTAAGGAGA returned a TetR repression strength of 0.264.
As to TCCCCGTGAGTTTCCGAGA, the TetR repression strength amounted to 0.233.
TCCCGTGTAGTGGTTGAGA: the TetR repression strength came out at 0.42.
The value for TCCCGGTGAGTCGGAGAGA was 0.192.
With TCCCGGCGAGTCTTCGAGA the figure was 0.247.
The value for TCCCCGGGAGTGAAGGAGA was 0.127.
The sequence TCCCATTGAGTCGACGAGA registered a TetR repression strength of 0.139.
In turn, TCCCAATAAGTGGAAGAGA showed a TetR repression strength of 0.286.
TCCCAGAGAGTGAGGGAGA: the TetR repression strength was found to be 0.204.
The value for TCCCTGGAAGTGTGTGAGA was 0.0653; that for TCCCACGGAGTGGACGAGA was 0.216.
The sequence TCCCACGAAGTCGATGAGA yielded a TetR repression strength of 0.386.
The sequence TCCCGCGCAGTGGAAGAGA registered a TetR repression strength of 0.405.
The sequence TCCCTATTAGTGCGGGAGA registered a TetR repression strength of 0.21.
The value for TCCCCCACAGTGAGTGAGA was 0.337; that for TCCCCCAAAGTGATGGAGA was 0.0606.
The value for TCCCAGTTAGTGTGCGAGA was 0.211; that for TCCCGGACAGTCATAGAGA was 0.261.
The value for TCCCCGTTAGTCAATGAGA was 0.396.
Take TCCCCTTTAGTAGCGGAGA: the TetR repression strength is 0.203.
With TCCCGGTCAGTTCGTGAGA the figure was 0.17; with TCCCTGGTAGTGTACGAGA, 0.283.
TCCCAGCTAGTACATGAGA gave a TetR repression strength of 0.487.
The value for TCCCTCGAAGTGATCGAGA was 0.343; that for TCCCCCGGAGTGGCGGAGA was 0.294; that for TCCCTCTCAGTGGTGGAGA was 0.245.
With TCCCGTAAAGTAGTCGAGA the figure was 0.142; with TCCCGCGTAGTCATGGAGA, 0.23; with TCCCGCGTAGTTTTAGAGA, 0.3.
With TCCCCAGTAGTACTAGAGA the figure was 0.235; with TCCCGGGGAGTACTTGAGA, 0.142.
Turning to TCCCTTGGAGTAACGGAGA, the TetR repression strength was found to be 0.0447.
With TCCCGACGAGTTGGCGAGA the figure was 0.122; with TCCCATCGAGTAAGCGAGA, 0.325; with TCCCTTGGAGTCTGAGAGA, 0.104.
The value for TCCCGAAAAGTGTACGAGA was 0.0562; that for TCCCGATTAGTCGGTGAGA was 0.116; that for TCCCAATAAGTGGGTGAGA was 0.31.
For TCCCTTGGAGTTTGTGAGA, the TetR repression strength is 0.121.
The value for TCCCTAGGAGTCGATGAGA was 0.355; that for TCCCAATCAGTTCACGAGA was 0.363; that for TCCCCGTGAGTGCATGAGA was 0.122.
With TCCCATACAGTCTAAGAGA the figure was 0.158.
With TCCCCCACAGTTAGAGAGA the figure was 0.46.
Turning to TCCCAGCAAGTGGTTGAGA, the TetR repression strength was 0.281.
The value for TCCCGCGGAGTGTTAGAGA was 0.277; that for TCCCGAAGAGTGTTAGAGA was 0.207.
The value for TCCCGCAAAGTGTCAGAGA was 0.104.
With TCCCGTTGAGTCGCAGAGA the figure was 0.456; with TCCCTGGAAGTGTTCGAGA, 0.277; with TCCCTCTAAGTTACGGAGA, 0.328.
Turning to TCCCTATCAGTGTGAGAGA, the TetR repression strength worked out at 0.919.
